Measurements taken from patent US20220363740A1 (Sanofi, published 2022).

Legend:
[1] = biological target: T1, Human TGFβ1 (human, UniProt P01137 partial chain); assay: SPR (Biacore), apparent KD, 105 RU TGFβ1 immobilized on the chip
T1 construct: also called Transforming Growth Factor-β1

[2] = biological target: T1, Human TGFβ1; assay: SPR (Biacore), apparent KD, 24 RU TGFβ1 immobilized on the chip
[3] = biological target: T1, Human TGFβ1; assay: SPR (Biacore), apparent KD, 544 RU TGFβ1 immobilized on the chip

T1 sequence (P01137 279-390 limits assumed): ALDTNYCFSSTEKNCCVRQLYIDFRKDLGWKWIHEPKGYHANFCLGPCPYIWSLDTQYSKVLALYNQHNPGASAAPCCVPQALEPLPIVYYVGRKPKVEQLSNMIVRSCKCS

Kd [1]: 0.2 nM
Kd [2]: 0.5 nM
Kd [3]: 0.09 nM
B1: CAT191(scFv-Fc) (Fc fusion)
chain: EVQLVESGGGVVQPGRSLRLSCAASGFTFSSYGMHWVRQAPGKELEWVAVISYDGSIKYYADSVKGRFTISRDNSKNTLYLQMNSLRAEDTAVYYCARTGEYSGYDTDPQYSWGQGTTVTVSSSGGGSGGGGSGGGGSEIVLTQSPSSLSASVGDRVTITCRSSQGIGDDLGWYQQKPGKAPILLIYGTSTLQSGVPSRFSGSGSGTDFTLTINSLQPEDFATYYCLQDSNYPLTFGGGTRLEIKGGS[… human IgG1 Fc …]
notes: Dimer of two identical monomers: VH-linker-VL-GGSG-human IgG1 hinge-human IgG1 Fc; also called scFv-Fc dimer
